# Test results taken from the BET-seq Pho4 binding data (Le et al. 2018).
# The list shows a part of the results. The energies were worked out here from pooled read counts, against the library average; single values are noisy.
# Molecular target: T1, Pho4 (S. cerevisiae) (UniProt P07270)
# T1 sequence: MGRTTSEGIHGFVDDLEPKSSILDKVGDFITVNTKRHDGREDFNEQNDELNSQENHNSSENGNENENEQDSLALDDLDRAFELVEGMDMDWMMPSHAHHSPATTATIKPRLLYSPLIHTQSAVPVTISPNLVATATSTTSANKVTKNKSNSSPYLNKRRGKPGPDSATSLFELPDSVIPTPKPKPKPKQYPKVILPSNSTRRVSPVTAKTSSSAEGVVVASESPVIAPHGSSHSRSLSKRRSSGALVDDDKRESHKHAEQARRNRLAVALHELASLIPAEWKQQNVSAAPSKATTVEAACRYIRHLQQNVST
# Experiment: relative binding free energy (BET-seq); higher = weaker binding
# Settings: reference: library average
row,Sequence,relative binding free energy [kcal/mol]
1,TCTTGCACGTGGTTAA,-0.05
2,GTTATCACGTGATGTG,0.38
3,GTAATCACGTGTTATT,0.13
4,GGCTGCACGTGGTGAG,-0.03
5,TTAGGCACGTGGGGTA,-0.26
6,CGCAGCACGTGGTAGG,-0.23
7,TTATGCACGTGAGTCA,0.11
8,TGTGACACGTGTGGCA,0.15
9,TTGGACACGTGTGTAT,0.15
10,TCATTCACGTGGTTAA,0.14
11,TGATGCACGTGTTCGT,-0.08
12,ATTGTCACGTGTACGT,0.14
13,TTTAACACGTGGATGG,0.02
14,GTCAGCACGTGATTGT,0.06
15,ATATGCACGTGGGTGC,-0.25
16,TCGACCACGTGGGGGG,-0.26
17,GCAGTCACGTGGGCGT,-0.07
18,GAAGACACGTGCGGGG,0.02
19,ATTGTCACGTGATGTA,0.24
20,GTTTGCACGTGTCGAG,0.07
21,ATGTGCACGTGACTAG,0.12

row,Sequence,relative binding free energy [kcal/mol]
1,AATTTCACGTGAGTGG,0.32
2,TTGAACACGTGTTGTA,-0.05
3,TTTCGCACGTGTGGCT,-0.11
4,CATATCACGTGGTGGG,0.04
5,TAAAACACGTGTTGTT,-0.03
6,AGGTGCACGTGAAATT,0.2
7,TTGTGCACGTGCTTTT,-0.06
8,GGAGTCACGTGTATGA,0.25
9,AGTTTCACGTGTTGGT,0.22
10,GGGGGCACGTGTGGCC,-0.09
11,GTATGCACGTGTAATT,0.06
12,TCTGGCACGTGAATGG,0.22
13,GGGGGCACGTGTGAGG,-0.04
14,TGTTACACGTGGTGTG,0.05
15,ATTGACACGTGAGAAT,0.38
16,TAAGCCACGTGTTGTG,0.02
17,TCTCTCACGTGGTTTG,0.18
18,GATCGCACGTGAATGT,0.3
19,GGGAGCACGTGGTTTT,0.07
20,GTGTCCACGTGGGGCG,-0.15
21,AGGCACACGTGAGTGT,0.16

row,Sequence,relative binding free energy [kcal/mol]
1,GATGGCACGTGTTCTT,-0.06
2,GATGTCACGTGAGATT,0.43
3,GAACGCACGTGGTTGT,-0.04
4,AGTCTCACGTGTCGGG,0.22
5,GGGCACACGTGTGTGG,0.17
6,TTTGCCACGTGTATGT,-0.07
7,GGTGTCACGTGCCGGA,-0.04
8,CTGGCCACGTGGGGTA,-0.29
9,GGATGCACGTGGTCGG,-0.03
10,GTAAACACGTGAGGTT,0.3
11,TGAGTCACGTGTTTCT,0.17
12,GGTTGCACGTGTCTGG,0.11
13,TTAAACACGTGTGTGT,0.07
14,TATTACACGTGTAAGA,0.14
15,TTTGTCACGTGTCCGT,0.11
16,AATTGCACGTGGTCAT,-0.11
17,TGGCGCACGTGTGGGG,-0.05
18,GTGGTCACGTGTGGTC,0.12
19,ATGTTCACGTGTTAGT,0.27
20,ATATACACGTGGCTGG,0.06
21,CATTCCACGTGGTGTT,0.03
